# Data as given in PubChem BioAssay AID652106 (National Center for Advancing Translational Sciences (NCATS), 2013).
# Among all 370,000 compounds or so, about 500 (0.14%) were called active. Inconclusive means that the source gave no clear call. Such entries were picked first, then a sample of the others. The call rests on the fitted dose curve; in most records, active means well fitted activation curve with a large enough effect; inconclusive means small, poorly fitted or top-dose-only effect; inactive means no such curve, though single readings can be large or run the other way. Potencies of inconclusive entries are left out as doubtful fits.
# Assay: qHTS of alpha-syn Inhibitors; further: nearly all actives have a fitted effect of over 65% in size
# Conditions: Yeast expressing alpha-synuclein, BacTiter-Glo, 24 h; Potency: growth rescue unless noted; series mostly up to 46.1 µM
# How it was run: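 Screening used galactose-induced yeast with toxic alpha-synuclein levels, exposed to compound for 24 hr at 30 deg C. Cell growth, read with BacTiter-Glo luminescence, gave the measured signal.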
# Potency means the concentration at half of the fitted maximal effect; tags describe the fitted curve by direction and shape.
row,SMILES,Potency
1,COc1ccc([N+](=O)[O-])cc1NC(=O)CSCc1ccccc1,inactive
2,O=S(=O)(c1cccc(Br)c1)N1CCN(c2ncnc3scc(-c4ccccc4)c23)CC1,inactive
3,Cc1ccc(N=Nc2ccc(O)c3ncccc23)cc1,"inconclusive [activator, single point]"
4,N#CCC(=O)N1CC2(CC(c3cccc(NC(=O)COc4ccc(Cl)cc4)c3)=NO2)C[C@@H]1C(N)=O (stereo not given in full),inactive
5,COc1ccc(-c2csc(NC(C)c3nc4cc(C(F)(F)F)ccc4n3CCOCCO)n2)cc1 (stereo not given),"inconclusive [activator, single point]"
6,COc1ccc(S(=O)(=O)Nc2cccc3cccnc23)c(N)c1,active: 22.4 µM
7,Cc1nc2oc3ccccc3c(=O)c2cc1C(=O)O,inactive
8,CC1(C(=O)NCc2ccc(Cl)cc2)CCN1C(=O)Cc1ccc(Cl)cc1Cl (stereo not given),"inconclusive [activator, single point]"
9,CCCCOCCCNC(=O)C[C@@H]1C[C@@]2(C(=O)OCC)CCCC=C2N(Cc2ccco2)C1=O,"inconclusive [activator, single point]"
10,O=C(Nc1cccc(Br)c1)Oc1cccc2cccnc12,"inconclusive [activator, single point]"
11,CCc1ccc(NC(=O)CSc2nnc(-c3ccccc3)n2C)cc1,inactive
12,Cc1nc(Nc2ccccc2)sc1C(=O)c1ccccc1,inactive
13,COc1ccc(/C=C2\NC(=S)N(CC3CCCO3)C2=O)c(OC)c1C (stereo not given),inactive
14,Cc1ccc(OCC(=O)Nc2ccc3c(c2)nc(CCN2CCOCC2)n3C)cc1,"inconclusive [activator, single point]"
15,O=C(O)/C=C\c1ccccc1Oc1cccc(Cl)c1,"inconclusive [activator, full curve]"
16,CCOC(=O)C1=CCN(S(=O)(=O)c2ccc(Br)cc2)C1c1cccc(C)c1 (stereo not given),"inconclusive [activator, single point]"
17,COc1ccc([C@H]2C[C@H](O)[C@@H](n3cc(-c4ccc(F)cc4)nn3)CN2Cc2cccs2)cc1,"inconclusive [activator, single point]"
18,CC1(C)Cc2c(ccc3ccccc23)C(=O)N1,inactive
19,CCCc1nnc(NC(=O)c2nc(S(=O)(=O)Cc3ccc(C)cc3)ncc2Cl)s1,inactive
20,CN(/N=C/c1cccnc1)c1cnc2ccccc2n1,"inconclusive [activator, single point]"
21,CC(C)C[C@@H](COCc1cccc(Cl)c1)N1CCN(C(=O)c2cccc(C(F)(F)F)c2)CCC1=O,"inconclusive [activator, single point]"
22,COc1cc(-c2cc3nc(NCc4cccc(Cl)c4)ccn3n2)cc(OC)c1OC,"inconclusive [activator, single point]"
23,CN(C)c1ccc(CNn2cnnc2SCc2ccccc2F)cc1,"inconclusive [activator, single point]"

row,SMILES,Potency
1,CC(=O)c1ccc(N2CCN(C(=O)/C=C/c3ccc4ccccc4n3)CC2)cc1,active: 10 µM
2,C[N+]1(CC2COC3(CCCCC3)O2)CCCCC1 (stereo not given),"inconclusive [activator, single point]"
3,COc1cc2c(NC3CCN(C(C)C)CC3)nc(N3CCCN(C)CC3)nc2cc1OCCCN1CCCC1,"inconclusive [activator, single point]"
4,Clc1cccc(CNc2ccn3nc(-c4ccccc4)cc3n2)c1,"inconclusive [activator, partial curve]"
5,CC12COC3(C(=O)N4CCN(c5ccccn5)CC4)CC1CCC32C (stereo not given),inactive
6,OC(c1cccc(Cl)c1)c1nc(/C=C/c2ccccc2)cs1 (stereo not given),inactive
7,COc1cc(-c2coc3c(C(=O)NCc4ccc(OC)c(OC)c4)cccc23)ccc1O,"inconclusive [activator, partial curve]"
8,Nn1c(C2CCC2)nc2ccccc2c1=O,inactive
9,CC(C)C[C@@H]1COc2cccc(N(C)CCO)c2S(=O)(=O)N1,"inconclusive [activator, partial curve]"
10,O=c1cc[nH]c2cccc(Cc3ccccc3)c12,"inconclusive [activator, single point]"
11,O=C(CCc1ccccc1)NCC1(c2ccccc2)CCCC1,"inconclusive [activator, single point]"
12,Cc1[nH]c2ccccc2c1CN1CCC(CO)(Cc2ccccc2)CC1,"inconclusive [activator, single point]"
13,O=C(c1ccc(-c2ccccc2)cc1)N1CCN(c2ccc3c(c2)C2CC3CCN2C(=O)OCc2ccccc2)CC1 (stereo not given),"inconclusive [activator, single point]"
14,O=C(Nc1nc(-c2ccccn2)cs1)c1ccc(F)c(S(=O)(=O)N2CCOCC2)c1,"inconclusive [activator, single point]"
15,S=C1SCCCN1Cc1ccc(Cl)cc1,inactive
16,O=C(CCCC(=O)N1CCN(c2cccc(Cl)c2)CC1)c1ccccc1,"inconclusive [activator, single point]"
17,COc1ccc(-c2coc3c(CN4CCCCC4C)c(O)ccc3c2=O)cc1 (stereo not given),"inconclusive [activator, single point]"
18,Cc1[nH]n(-c2ccccc2)c(=O)c1N=Nc1cccc(C(=O)O)c1,"inconclusive [activator, full curve, poor fit]"
19,O=c1cc(CNc2cc(Cl)ccc2Cl)nc2sccn12,"inconclusive [activator, single point]"
20,O=C(Nc1ccc(S(=O)(=O)N2CCCC2)cc1)N1c2ccccc2Sc2ccccc21,"inconclusive [activator, single point]"
21,COc1ccc(N(C2CSC2)S(=O)(=O)c2ccccc2)cc1,"inconclusive [activator, single point]"
22,Fc1ccc(N2N=C(c3cccs3)CC2c2ccccc2)cc1 (stereo not given),"inconclusive [activator, single point]"
